Data on 4 compounds can be found in paper PMC7248809, “Differential Proliferation Effect of the Newly Synthesized Valine, Tyrosine and Tryptophan–Naphthoquinones in Immortal and Tumorigenic Cervical Cell Lines” (Molecules, 2020).

For the assay, the system named is C33-A cells (HPV negative cervical tumor line). Put plainly: cells. The note with it: Homo sapiens, C-33-A, 72 h.

The structures appear in SMILES notation.

With `O=C1C=C(NC(Cc2ccc(O)cc2)C(=O)O)C(=O)c2ccccc21` (stereo not shown) [Compound 3a, 2-((1,4-dioxo-1,4-dihydronphthalen-2-yl)amino)-3-(4-hydroxyphenyl) propanoic acid], the IC50 (in general, the concentration at which inhibition is half-maximal) was 55.6 µM.
For `CC(C)C(NC1=CC(=O)c2ccccc2C1=O)C(=O)O` (stereo not shown) [Compound 3b, 2-((1,4-dioxo-1,4-dihydronaphthalen-2-yl)amino)-3-methylbutanoic acid] the value was 55.6 µM.
`O=C1C=C(NC(Cc2c[nH]c3ccccc23)C(=O)O)C(=O)c2ccccc21` (stereo not shown) [Compound 3c, 2-((1,4-dioxo-1,4-dihidronaphthalen-2-yl)amino)-3-(1H-indol-3-yl)propanoic acid] showed an IC50 of 21.4 µM.
For `O=C1C(Cl)=C(NC(Cc2c[nH]c3ccccc23)C(=O)O)C(=O)c2ccccc21` (stereo not shown) [Compound 4c, 2-((3-chloro-1,4-dioxo-1,4-dihydronaphthalen-2-yl)amino)-3-(1H-indol-3-yl)propanoic acid] the value was approximately 0.00345 µM.
